Measurements from the supplement of paper PMC4604168 (melanoma cell lines).
Some of the results follow. Repeats are few or missing, and single values can be far off.

Key:
Test in all cases: cell count relative to DMSO control; melanoma cells; higher = more viable cells
Settings in all cases: library dose: standard library concentration; 72 h
G361 = system: G361
IPC-298 = system: IPC-298
IST-MEL1 = system: IST-MEL1
LB2518-MEL = system: LB2518-MEL
LOXIMVI = system: LOXIMVI
MEL-HO = system: MEL-HO
MZ2-MEL = system: MZ2-MEL
MeWo = system: MeWo
RPMI7951 = system: RPMI7951
RVH-421 = system: RVH-421
SkMel28 = system: SkMel28
SkMel2 = system: SkMel2
SkMel30 = system: SkMel30
SkMel5 = system: SkMel5
UACC257 = system: UACC257
UACC62 = system: UACC62
WM115 = system: WM115
WM1716 = system: WM1716
WM3526 = system: WM3526
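Also: cells treated in 1,536-well plates, then fixed and DAPI-stained, with nuclei counted from automated high-throughput microscope images.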

| Compound | cell count (G361) [%] | cell count (IPC-298) [%] | cell count (IST-MEL1) [%] | cell count (LB2518-MEL) [%] | cell count (LOXIMVI) [%] | cell count (MEL-HO) [%] | cell count (MZ2-MEL) [%] | cell count (MeWo) [%] | cell count (RPMI7951) [%] | cell count (RVH-421) [%] | cell count (SkMel28) [%] | cell count (SkMel2) [%] | cell count (SkMel30) [%] | cell count (SkMel5) [%] | cell count (UACC257) [%] | cell count (UACC62) [%] | cell count (WM115) [%] | cell count (WM1716) [%] | cell count (WM3526) [%] |
| --- | --- | --- | --- | --- | --- | --- | --- | --- | --- | --- | --- | --- | --- | --- | --- | --- | --- | --- | --- |
| Nc1ncn([C@H]2C[C@H](O)[C@@H](CO)O2)c(=O)n1 [decitabine] + COc1ccc2c(c1)CCC1C2CCC2(C)C(NCCCCCCN3C(=O)C=CC3=O)CCC12 [U73122] (first compound 0.5 µM, partner dose 2 µM) | 75.7 | 64.4 | 72.6 | 88.2 | 60.4 | 82.5 | 86.5 | 50.1 | 31.1 | 69.7 | 85.5 | 86.2 | 87.3 | 56.9 | 100 | 54.8 | 65.8 | 67.4 | 95.9 |
| Nc1ncn([C@H]2C[C@H](O)[C@@H](CO)O2)c(=O)n1 [decitabine] + O=C(Nc1ccccc1)c1cc([N+](=O)[O-])ccc1Cl [GW9662] (first compound 0.5 µM, partner dose 10 µM) | 66.1 | 59.8 | 75.3 | 96 | 59.6 | 74 | 74.9 | 53.2 | 62.1 | 52.5 | 63.6 | 97.3 | 98.4 | 82.3 | 84.9 | 73 | 75.9 | 77.4 | 94.7 |
| Nc1nc(F)nc2c1ncn2[C@@H]1O[C@H](CO)[C@@H](O)[C@@H]1O [fludarabine] + O=c1cc(-c2cccc3c2Sc2ccccc2S3)oc(N2CCOCC2)c1 [KU55933] (first compound 1 µM, partner dose 5 µM) | 65.7 | 74.9 | 83.6 | 72.8 | 91.4 | 74.8 | 96 | 101 | 69.6 | 98.7 | 2.34 | 0.679 | 19.2 | 13.2 | 39.9 | 67.8 | 89.5 | 95.3 | 17.9 |
| CO[C@H]1C[C@@H]2CC[C@@H](C)[C@@](O)(O2)C(=O)C(=O)N2CCCC[C@H]2C(=O)O[C@H]([C@H](C)C[C@@H]2CC[C@@H](OCCO)[C@H](OC)C2)CC(=O)[C@H](C)/C=C(\C)[C@@H](O)[C@@H](OC)C(=O)[C@H](C)C[C@H](C)/C=C/C=C/C=C/1C [everolimus] + Cc1cc([N+](=O)[O-])ccc1NS(=O)(=O)c1cc(Cl)ccc1Cl [FH535] (first compound 0.1 µM, partner dose 5 µM) | 35 | 44.5 | 52.3 | 59.4 | 67 | 34.6 | 54.8 | 49.2 | 70.5 | 65.8 | 35.2 | 52.6 | 71.2 | 43.3 | 63.2 | 88.4 | 55.8 | 54.7 | 54.9 |
| CO[C@H]1C[C@@H]2CC[C@@H](C)[C@@](O)(O2)C(=O)C(=O)N2CCCC[C@H]2C(=O)O[C@H]([C@H](C)C[C@@H]2CC[C@@H](OCCO)[C@H](OC)C2)CC(=O)[C@H](C)/C=C(\C)[C@@H](O)[C@@H](OC)C(=O)[C@H](C)C[C@H](C)/C=C/C=C/C=C/1C [everolimus] + O=C(O)C(=O)Nc1sc2c(c1C(=O)O)CCNC2 [TCS401] (first compound 0.1 µM, partner dose 8.33333 µM) | 77.1 | 83.1 | 88.3 | 71.2 | 87.7 | 81.4 | 84.3 | 69.6 | 78.9 | 81.1 | 35.4 | 60.7 | 70.4 | 44.5 | 82.1 | 75.9 | 74.4 | 72.2 | 79.7 |
| CC(=O)O[C@@]12CO[C@@H]1C[C@H](O)[C@@]1(C)C(=O)[C@H](O)C3=C(C)[C@@H](OC(=O)[C@H](O)[C@@H](NC(=O)OC(C)(C)C)c4ccccc4)C[C@@](O)([C@@H](OC(=O)c4ccccc4)[C@H]21)C3(C)C [Docetaxel] + Oc1cc(-c2nc(-c3ccccc3)[nH]c2-c2ccncc2)ccc1Cl [L779450] (first compound 0.0005 µM, partner dose 1 µM) | 11.7 | 36.8 | 43.1 | 45.1 | 56.1 | 38.6 | 41.2 | 24.7 | 16 | 55.6 | 16.1 | 12.2 | 43.2 | 46.4 | 69.7 | 41.3 | 37 | 30.8 | 29.9 |
| Nc1ccn([C@@H]2O[C@H](CO)[C@@H](O)C2(F)F)c(=O)n1 [gemcitabine] + COc1cc2ncnc(Nc3ccc(Oc4ccccc4)cc3)c2cc1OC [SrcI1] (first compound 0.002 µM, partner dose 10 µM) | 55.1 | 47.2 | 43.5 | 94.9 | 60.6 | 62 | 73.7 | 55.3 | 46 | 90.1 | 56.3 | 94.6 | 96.5 | 59.8 | 87.8 | 72.4 | 58.4 | 78 | 58.3 |
| CO[C@H]1C[C@@H]2CC[C@@H](C)[C@@](O)(O2)C(=O)C(=O)N2CCCC[C@H]2C(=O)O[C@H]([C@H](C)C[C@@H]2CC[C@@H](OCCO)[C@H](OC)C2)CC(=O)[C@H](C)/C=C(\C)[C@@H](O)[C@@H](OC)C(=O)[C@H](C)C[C@H](C)/C=C/C=C/C=C/1C [everolimus] + CCCCCCCCCCCC1=C(O)C(=O)C=C(O)C1=O [Embelin] (first compound 0.1 µM, partner dose 6 µM) | 61.7 | 84.6 | 60.4 | 74.5 | 92.9 | 62.1 | 82.9 | 77.4 | 71.2 | 84 | 55.7 | 61.6 | 82.4 | 72.8 | 96.3 | 66.5 | 65.1 | 70.7 | 69.9 |
| CC(=O)c1c(C)c2cnc(Nc3ccc(N4CCNCC4)cn3)nc2n(C2CCCC2)c1=O [palbociclib] + CCCCCCCCCCCC1=C(O)C(=O)C=C(O)C1=O [Embelin] (first compound 0.2 µM, partner dose 6 µM) | 57.3 | 42.9 | 45.3 | 47 | 88.9 | 62.8 | 44.3 | 63.6 | 52.9 | 50 | 36 | 56.2 | 59.9 | 39 | 69.3 | 70.4 | 46.9 | 35.6 | 37.6 |
| Nc1ncn([C@H]2C[C@H](O)[C@@H](CO)O2)c(=O)n1 [decitabine] + COC(=O)c1sccc1S(=O)(=O)Nc1ccc(Nc2ccccc2)cc1OC [GSK0660] (first compound 0.5 µM, partner dose 5 µM) | 108 | 53.7 | 84.7 | 65.4 | 111 | 88.6 | 77.3 | 71 | 96 | 74.6 | 112 | 93.6 | 103 | 74.3 | 95.4 | 64.6 | 74.8 | 80.8 | 112 |
| CC(=O)c1c(C)c2cnc(Nc3ccc(N4CCNCC4)cn3)nc2n(C2CCCC2)c1=O [palbociclib] + Oc1cc(-c2nc(-c3ccccc3)[nH]c2-c2ccncc2)ccc1Cl [L779450] (first compound 0.2 µM, partner dose 1 µM) | 43 | 71.5 | 75.7 | 69.1 | 93 | 72.4 | 75.9 | 37.6 | 68.8 | 75.6 | 25.1 | 26.7 | 62.7 | 47.6 | 89.1 | 60.4 | 41.4 | 53 | 50.6 |
| Nc1ccn([C@@H]2O[C@H](CO)[C@@H](O)C2(F)F)c(=O)n1 [gemcitabine] + CCN(CC)CCCCNc1ncc2cc(-c3cc(OC)cc(OC)c3)c(NC(=O)NC(C)(C)C)nc2n1 [PD173074] (first compound 0.002 µM, partner dose 0.5 µM) | 51.4 | 56.5 | 45.7 | 72.1 | 48.9 | 65.8 | 87.3 | 45.8 | 81.4 | 65.4 | 99.5 | 104 | 107 | 74.4 | 113 | 65.9 | 74.9 | 70.7 | 96.2 |
| Nc1ccn([C@@H]2O[C@H](CO)[C@@H](O)C2(F)F)c(=O)n1 [gemcitabine] + COc1ccc(COc2ccc(Cc3cnc(N)nc3N)cc2OC)cc1 [GW2580] (first compound 0.002 µM, partner dose 5 µM) | 66.7 | 52.5 | 50.4 | 76.8 | 83.5 | 69.9 | 81 | 51.1 | 87.4 | 81.2 | 123 | 111 | 108 | 87.6 | 96.8 | 99.2 | 74.5 | 75.6 | 113 |
| Nc1ccn([C@@H]2O[C@H](CO)[C@@H](O)C2(F)F)c(=O)n1 [gemcitabine] + Oc1cc(-c2nc(-c3ccccc3)[nH]c2-c2ccncc2)ccc1Cl [L779450] (first compound 0.002 µM, partner dose 1 µM) | 50.3 | 49 | 53.9 | 63.9 | 127 | 55.3 | 85.9 | 43.8 | 58.4 | 82.2 | 49.6 | 30.6 | 94.5 | 54.5 | 95.1 | 43.4 | 52.1 | 68.6 | 46.4 |
| CC(=O)O[C@@]12CO[C@@H]1C[C@H](O)[C@@]1(C)C(=O)[C@H](O)C3=C(C)[C@@H](OC(=O)[C@H](O)[C@@H](NC(=O)OC(C)(C)C)c4ccccc4)C[C@@](O)([C@@H](OC(=O)c4ccccc4)[C@H]21)C3(C)C [Docetaxel] + O=C(O)C(=O)Nc1sc2c(c1C(=O)O)CCNC2 [TCS401] (first compound 0.0005 µM, partner dose 8.33333 µM) | 19.6 | 37.6 | 43.1 | 44.3 | 60.4 | 36.4 | 43 | 20.1 | 24.9 | 59.6 | 15 | 12.7 | 49 | 39.5 | 71.1 | 71.3 | 37.6 | 38 | 40.5 |
| Nc1nc(F)nc2c1ncn2[C@@H]1O[C@H](CO)[C@@H](O)[C@@H]1O [fludarabine] + COc1ccc2c(c1)CCC1C2CCC2(C)C(NCCCCCCN3C(=O)C=CC3=O)CCC12 [U73122] (first compound 1 µM, partner dose 2 µM) | 79.6 | 82.3 | 77.8 | 83.7 | 61.7 | 85.9 | 93.4 | 68.2 | 35.8 | 165 | 2.11 | 1.71 | 14.2 | 24.6 | 23.1 | 86.3 | 90.1 | 60.1 | 21.5 |
| Nc1ccn([C@@H]2O[C@H](CO)[C@@H](O)C2(F)F)c(=O)n1 [gemcitabine] + N#Cc1c(O)c2c(-c3ccc(-c4ccccc4O)cc3)csc2[nH]c1=O [A769662] (first compound 0.002 µM, partner dose 10 µM) | 35.8 | 52.8 | 43.9 | 66.7 | 68.5 | 55.3 | 86.4 | 40.3 | 62.5 | 60.2 | 105 | 71.7 | 117 | 87.1 | 112 | 84 | 90.7 | 71.3 | 100 |
